# Assay results as given in the supplement of paper PMC8728848.
# The list shows a part of the results.
# B1: Pwp5 ND (Candida glabrata) (protein)
# chain: MGSSHHHHHHSSGLVPRGSHMASANPVPLTNVCYFPEEYPRQAGFRAITAGLASTILQGSVDELLNYSGLSSLTTQQTTTTTPNFQLPTLPLPTNVYGLTVVPLYLLVQLQGYFVPPVSGQYTFSLENTNDAAIIFFGNPSAFPCGDLSAWPQASADDITVTDGTFPSRTLFLKAGVAYPMRISYYNSLGSGNLAVSFTDPGGTKRTNWNGYIWRYNSCSTCTYT
# Assays:
# Test in all cases: glycan array binding signal (z-score within array); higher = stronger binding
# Details in all cases: glycan notation: IUPAC condensed, linker removed
# [1] = molecular target: Gal(b1-4)GlcNAc(b1-3)Gal(b1-4)GlcNAc(b1-3)Gal(b1-4)GlcNAc(b1-3)Gal(b1-4)GlcNAc(b1-2)Man(a1-3)[Gal(b1-4)GlcNAc(b1-3)Gal(b1-4)GlcNAc(b1-3)Gal(b1-4)GlcNAc(b1-3)Gal(b1-4)GlcNAc(b1-2)Man(a1-6)]Man(b1-4)GlcNAc(b1-4)[Fuc(a1-6)]GlcNAc
# How it was run: (§1)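 Glycan array data came from 3228 arrays in the Consortium for Functional Glycomics database, and only arrays with an available protein sequence were kept. Glycan names were put into IUPAC-condensed notation, and columns mapping to the same glycan were averaged. The binding signal is a within-array Z-score, averaged across arrays of one protein sequence run at different concentrations or buffers and across linkers. A negative Z-score can be read as non-binding.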
# [2] = molecular target: Gal(b1-4)GlcNAc(b1-3)Gal(b1-4)GlcNAc(b1-3)Gal(b1-4)GlcNAc(b1-3)Gal(b1-4)GlcNAc(b1-2)[Gal(b1-4)GlcNAc(b1-3)Gal(b1-4)GlcNAc(b1-3)Gal(b1-4)GlcNAc(b1-3)Gal(b1-4)GlcNAc(b1-6)]Man(a1-6)[Gal(b1-4)GlcNAc(b1-3)Gal(b1-4)GlcNAc(b1-3)Gal(b1-4)GlcNAc(b1-3)Gal(b1-4)GlcNAc(b1-2)Man(a1-3)]Man(b1-4)GlcNAc(b1-4)[Fuc(a1-6)]GlcNAc
# How it was run: as §1
# [3] = molecular target: Gal(b1-4)GlcNAc(b1-3)Gal(b1-4)GlcNAc(b1-3)Gal(b1-4)GlcNAc(b1-3)Gal(b1-4)GlcNAc(b1-3)Gal(b1-4)GlcNAc(b1-2)Man(a1-3)[Gal(b1-4)GlcNAc(b1-3)Gal(b1-4)GlcNAc(b1-3)Gal(b1-4)GlcNAc(b1-3)Gal(b1-4)GlcNAc(b1-3)Gal(b1-4)GlcNAc(b1-2)Man(a1-6)]Man(b1-4)GlcNAc(b1-4)GlcNAc
# How it was run: as §1
# [4] = molecular target: Gal(b1-4)GlcNAc(b1-3)Gal(b1-4)GlcNAc(b1-3)Gal(b1-4)GlcNAc(b1-3)Gal(b1-4)GlcNAc(b1-3)Gal(b1-4)GlcNAc(b1-2)Man(a1-3)[Gal(b1-4)GlcNAc(b1-3)Gal(b1-4)GlcNAc(b1-3)Gal(b1-4)GlcNAc(b1-3)Gal(b1-4)GlcNAc(b1-3)Gal(b1-4)GlcNAc(b1-2)Man(a1-6)]Man(b1-4)GlcNAc(b1-4)[Fuc(a1-6)]GlcNAc
# How it was run: as §1
# [5] = molecular target: Gal(b1-4)GlcNAc(b1-3)Gal(b1-4)GlcNAc(b1-3)Gal(b1-4)GlcNAc(b1-3)Gal(b1-4)GlcNAc(b1-3)Gal(b1-4)GlcNAc(b1-2)[Gal(b1-4)GlcNAc(b1-3)Gal(b1-4)GlcNAc(b1-3)Gal(b1-4)GlcNAc(b1-3)Gal(b1-4)GlcNAc(b1-3)Gal(b1-4)GlcNAc(b1-6)]Man(a1-6)[Gal(b1-4)GlcNAc(b1-3)Gal(b1-4)GlcNAc(b1-3)Gal(b1-4)GlcNAc(b1-3)Gal(b1-4)GlcNAc(b1-3)Gal(b1-4)GlcNAc(b1-2)Man(a1-3)]Man(b1-4)GlcNAc(b1-4)[Fuc(a1-6)]GlcNAc
# How it was run: as §1
# [6] = molecular target: Gal(b1-4)GlcNAc(b1-3)Gal(b1-4)GlcNAc(b1-3)Gal(b1-4)GlcNAc(b1-3)Gal(b1-4)GlcNAc(b1-3)Gal(b1-4)GlcNAc(b1-3)Gal(b1-4)GlcNAc(b1-2)Man(a1-3)[Gal(b1-4)GlcNAc(b1-3)Gal(b1-4)GlcNAc(b1-3)Gal(b1-4)GlcNAc(b1-3)Gal(b1-4)GlcNAc(b1-3)Gal(b1-4)GlcNAc(b1-3)Gal(b1-4)GlcNAc(b1-2)Man(a1-6)]Man(b1-4)GlcNAc(b1-4)GlcNAc
# How it was run: as §1
# [7] = molecular target: Gal(b1-4)GlcNAc(b1-3)Gal(b1-4)GlcNAc(b1-3)GalNAc
# How it was run: as §1
# [8] = molecular target: Gal(b1-4)GlcNAc(b1-3)Gal(b1-4)GlcNAc(b1-3)[Gal(b1-4)GlcNAc(b1-3)Gal(b1-4)GlcNAc(b1-6)]GalNAc
# How it was run: as §1
# [9] = molecular target: Gal(b1-4)GlcNAc(b1-3)Gal(b1-4)GlcNAc(b1-6)[Gal(b1-3)]GalNAc
# How it was run: as §1
# [10] = molecular target: Gal(b1-4)GlcNAc(b1-3)Gal(b1-4)[Fuc(a1-3)]GlcNAc(b1-3)Gal(b1-4)[Fuc(a1-3)]GlcNAc
# How it was run: as §1
# [11] = molecular target: Gal(b1-4)GlcNAc(b1-3)GalNAc
# How it was run: as §1
# [12] = molecular target: Gal(b1-4)GlcNAc(b1-3)[Fuc(a1-3)GlcNAc(b1-6)]Gal(b1-4)Glc
# How it was run: as §1
# [13] = molecular target: Gal(b1-4)GlcNAc(b1-3)[Gal(b1-4)GlcNAc(b1-6)]Gal(b1-4)GlcNAc
# How it was run: as §1
# [14] = molecular target: Gal(b1-4)GlcNAc(b1-3)[GlcNAc(b1-6)]Gal(b1-4)GlcNAc
# How it was run: as §1
# [15] = molecular target: Gal(b1-4)GlcNAc(b1-6)Gal(b1-4)GlcNAc
# How it was run: as §1
# [16] = molecular target: Gal(b1-4)GlcNAc(b1-6)GalNAc
# How it was run: as §1
# [17] = molecular target: Gal(b1-4)GlcNAc(b1-6)[Gal(b1-3)]GalNAc
# How it was run: as §1
# [18] = molecular target: Gal(b1-4)GlcNAc(b1-6)[Gal(b1-4)GlcNAc(b1-3)]GalNAc
# How it was run: as §1
# Gal(b1-4)GlcNAc6P = molecular target: Gal(b1-4)GlcNAc6P
# How it was run: as §1
# Gal(b1-6)Gal = molecular target: Gal(b1-6)Gal
# How it was run: as §1
# Gal3S(b1-3)GalNAc = molecular target: Gal3S(b1-3)GalNAc
# How it was run: as §1
# Gal3S(b1-3)GlcNAc = molecular target: Gal3S(b1-3)GlcNAc
# How it was run: as §1
# [19] = molecular target: Gal3S(b1-3)[Fuc(a1-4)]GlcNAc
# How it was run: as §1
binder,measurement,setting,value
B1,glycan array binding signal (z-score),[1],0.794
same,glycan array binding signal (z-score),[2],-0.228
same,glycan array binding signal (z-score),[3],0.088
same,glycan array binding signal (z-score),[4],0.558
same,glycan array binding signal (z-score),[5],1.94
same,glycan array binding signal (z-score),[6],0.987
same,glycan array binding signal (z-score),[7],0.018
same,glycan array binding signal (z-score),[8],0.621
same,glycan array binding signal (z-score),[9],-0.326
same,glycan array binding signal (z-score),[10],-0.559
same,glycan array binding signal (z-score),[11],-0.549
same,glycan array binding signal (z-score),[12],-0.468
same,glycan array binding signal (z-score),[13],1.28
same,glycan array binding signal (z-score),[14],0.024
same,glycan array binding signal (z-score),[15],-0.421
same,glycan array binding signal (z-score),[16],0.045
same,glycan array binding signal (z-score),[17],1.12
same,glycan array binding signal (z-score),[18],-0.249
same,glycan array binding signal (z-score),Gal(b1-4)GlcNAc6P,0.563
same,glycan array binding signal (z-score),Gal(b1-6)Gal,-0.403
same,glycan array binding signal (z-score),Gal3S(b1-3)GalNAc,-0.627
same,glycan array binding signal (z-score),Gal3S(b1-3)GlcNAc,-0.462
same,glycan array binding signal (z-score),[19],-0.083
